# Laboratory results reported in publication PMC4336329 (PLoS ONE, 2015).
# About 2,200 (0.71%) of roughly 310,000 compounds showed an effect of 50% or more. The effect is printed as a negative number. The list shows a part of the results.
# Target: human ether-à-go-go-related gene (hERG) potassium channel (human, UniProt Q12809)
# Test: primary screen, population patch clamp on CHO cells stably expressing hERG
# Chain of human ether-à-go-go-related gene (hERG) potassium channel (Q12809 whole entry, looked up): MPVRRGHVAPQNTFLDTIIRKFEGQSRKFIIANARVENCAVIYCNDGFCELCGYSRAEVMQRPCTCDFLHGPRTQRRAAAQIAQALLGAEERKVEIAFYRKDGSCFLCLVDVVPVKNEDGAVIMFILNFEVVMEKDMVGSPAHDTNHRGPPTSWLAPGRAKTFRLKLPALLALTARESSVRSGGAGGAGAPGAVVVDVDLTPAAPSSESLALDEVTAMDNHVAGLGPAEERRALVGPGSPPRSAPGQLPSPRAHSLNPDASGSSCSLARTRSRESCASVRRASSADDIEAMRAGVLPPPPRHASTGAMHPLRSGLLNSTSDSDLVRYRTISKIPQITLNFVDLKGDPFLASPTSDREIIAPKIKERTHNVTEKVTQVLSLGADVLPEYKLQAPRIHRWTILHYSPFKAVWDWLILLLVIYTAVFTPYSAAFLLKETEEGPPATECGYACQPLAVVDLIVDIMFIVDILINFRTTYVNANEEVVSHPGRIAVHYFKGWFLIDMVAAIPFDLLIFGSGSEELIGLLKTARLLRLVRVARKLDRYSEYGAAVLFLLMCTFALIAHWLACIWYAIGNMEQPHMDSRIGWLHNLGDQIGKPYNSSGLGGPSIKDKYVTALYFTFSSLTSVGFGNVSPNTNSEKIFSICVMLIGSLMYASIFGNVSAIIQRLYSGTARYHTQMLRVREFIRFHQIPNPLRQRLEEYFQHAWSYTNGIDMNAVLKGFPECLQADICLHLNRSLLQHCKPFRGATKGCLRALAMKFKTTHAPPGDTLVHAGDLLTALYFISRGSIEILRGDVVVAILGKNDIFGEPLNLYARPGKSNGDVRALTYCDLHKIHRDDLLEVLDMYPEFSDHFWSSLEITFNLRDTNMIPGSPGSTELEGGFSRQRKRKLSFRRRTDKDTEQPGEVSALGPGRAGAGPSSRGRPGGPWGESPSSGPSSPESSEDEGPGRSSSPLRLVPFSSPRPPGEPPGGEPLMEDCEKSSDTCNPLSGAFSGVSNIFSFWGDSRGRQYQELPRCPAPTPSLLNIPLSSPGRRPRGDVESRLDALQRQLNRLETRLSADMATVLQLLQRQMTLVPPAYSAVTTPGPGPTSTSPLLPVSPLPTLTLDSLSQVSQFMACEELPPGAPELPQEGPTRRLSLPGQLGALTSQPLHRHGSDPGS
row,Compound,"hERG current change (%, negative = inhibition) at 1uM [%]"
1,Cc1ccc(/C=C/C(=O)Nc2nn[nH]n2)o1,16.5
2,Oc1ccccc1N=Nc1nc(-c2ccccc2)c(-c2ccccc2)[nH]1,6.98
3,COc1ccc(C(=O)Nc2c3c(nn2C(C)(C)C)CS(=O)(=O)C3)cc1OC,9.82
4,O=C(NC1CCCC1)c1cccnc1N1CCCCCC1,5.12
5,N#CC/C(N)=N/Nc1nc2ccccc2nc1Cc1ccccc1,5.25
6,Cc1cc(C)c(C)c(S(=O)(=O)N2CCN(C(=O)c3cc(=O)[nH]c4ccccc34)CC2)c1C,-8.77
7,COc1ccc(-c2cc(C(=O)NCc3cccs3)no2)cc1,8.71
8,COc1cccc(C(c2c(C)[nH]n(-c3ccccc3)c2=O)c2c(C)[nH]n(-c3ccccc3)c2=O)c1O,5.86
9,COc1ccc(NS(=O)(=O)c2cn(C)cn2)cc1Cl,7.24
10,CC(=O)Nc1ccc(S(=O)(=O)NCC(=O)OCC(=O)N2CCCc3ccccc32)cc1,5.56
11,CCN(CC)C(=O)CSc1nnc(COc2cccc(C)c2)n1C,-3.56
12,Cc1ccc(C)c(NC(=O)CN(C)C(=O)C2CCN(C(=O)Nc3ccccc3)CC2)c1,8.59
13,CCOC(=O)c1nnc(-c2ccccc2)[nH]c1=O,10.9
14,CC1CCC/C(=C\Nc2ccc(C(=O)O)cc2)C1=O (stereo not shown),11
15,COCCOC(=O)c1c(C)oc2ccc(OS(C)(=O)=O)cc12,2.8
16,COc1cc(CN2CCN(Cc3ccc([N+](=O)[O-])cc3)CC2)c([N+](=O)[O-])cc1OC.O=C(O)C(=O)O,-25.4
17,CCOC(=O)N1CCN(c2ccc(S(=O)(=O)N3CCC(C)CC3)cc2[N+](=O)[O-])CC1,5.4
18,O=C(CCN1C(=O)/C(=C/c2ccc(F)cc2)SC1=S)NC1C=CS(=O)(=O)C1 (stereo not shown),8.75
19,CCN(CC)S(=O)(=O)c1ccc2[nH]cc(C(=O)NCCc3ccc(OC)c(OC)c3)c(=O)c2c1,4.71
20,CCOC(=O)CSc1[nH]c2cc(OC)ccc2c1[N+](=O)[O-],4.58
21,Cc1cc(C2=NNC(=NCCc3ccccc3)SC2)c(C)n1CC1CCCO1 (stereo not shown),7.84
22,CCCCn1nnc(NC(=O)Cc2ccc(Cl)cc2)n1,-4.74

row,Compound,"hERG current change (%, negative = inhibition) at 1uM [%]"
1,CCCCOC(=S)NC(=O)c1sc2ccccc2c1Cl,0.594
2,COC(=O)N/N=C/c1cccc(OCCSc2ccc(Cl)cc2)c1,14.5
3,CCN(CC(=O)NC1CCS(=O)(=O)C1)C(=O)C(c1ccccc1)c1ccccc1 (stereo not shown),8.7
4,O=C(Nc1ccc(OCC(=O)N2CCOCC2)cc1)c1ccccc1Cl,11.1
5,O=C1NCN(c2ccccc2)C12CCNCC2,9.65
6,CC(C)(C)c1cc(NCCCn2ccnc2)n2ncc(-c3ccccc3)c2n1,8.87
7,Cl.Oc1cccc(CN2CCCCC2)c1,-0.769
8,CC(C)(C)c1ccc(-c2conc2N)cc1,10.4
9,Cc1nn(Cc2ccccc2)c(Cl)c1C(=O)OCC#N,-0.208
10,COc1cc(/C=N/NC(=O)CN2CC(c3ccccc3)CC2=O)ccc1OC(=O)N(C)C (stereo not shown),8.89
11,O=C(Cn1nc(-c2ccccc2)ccc1=O)NCCN1CCN(Cc2ccccc2)CC1,4.05
12,CCOc1cc(C(=O)NC(C)Cc2cccs2)cc(OCC)c1OCC (stereo not shown),9.31
13,CCOC(=O)c1c(NC(=O)CN2C(=O)NC3(CCC(CC)CC3)C2=O)sc(C)c1-c1ccc(C)cc1 (stereo not shown),8.12
14,CCc1ccc(NC(=O)c2cc(S(=O)(=O)N3CCCC3)c[nH]2)cc1,3.26
15,CCOCCCNC(=O)C1CCC(CNS(=O)(=O)c2ccc(Cl)cc2)CC1 (stereo not shown),1.19
16,CCN(C(=O)CSc1nc2ccc([N+](=O)[O-])cc2s1)C1CCS(=O)(=O)C1 (stereo not shown),-14.7
17,O=C(Oc1ccc(N2C(=O)C3C4CCC(C4)C3C2=O)cc1)c1ccco1 (stereo not shown),15.5
18,COC(=O)C1=C(c2cccc(C#N)c2)C[C@@H]2CC[C@H]1N2C(=O)NCCNC(C)=O,17.2
19,CCCCNC(=O)CS(=O)Cc1nc(-c2cccc(C)c2)oc1C (stereo not shown),-2.23
20,CC(C)CN(C(=O)COC(=O)CCC(=O)c1ccc(Cl)cc1)c1c(N)n(Cc2ccccc2)c(=O)[nH]c1=O,10.9
21,CCCCCCCN1CCC(=O)N(CCO)CC1,-21.7
22,O=[N+]([O-])c1ccc(Cl)c(/C=N/N2CCN(c3ccccc3)CC2)c1,14.2

row,Compound,"hERG current change (%, negative = inhibition) at 1uM [%]"
1,O=C(c1cncc(Br)c1)N1CCN(c2ccc(N3CCOCC3)nn2)CC1,9.87
2,CCOC(=O)N1CCN(C(=O)/C(=C\c2cccs2)NC(=O)c2cccs2)CC1,-8.11
3,COc1cccc(NC(=O)[C@H](NC(=O)[C@@H]2Cc3ccccc3CN2)c2ccccc2)c1,-18.9
4,C/C(=N\NC(=O)CN1CCN(Cc2ccccc2)CC1)c1cccs1,-2.13
5,Cc1nc(-c2ccccc2)cc(-c2ccccc2)n1,7.66
6,c1ccc(SCc2nc3ccccc3s2)nc1,10
7,CC1OC23CCCCC2C(C#N)(C(=N)O3)C1(C#N)C#N (stereo not shown),11.3
8,Cc1ccc(S(=O)(=O)N2CCN(C(=O)C3CC3C)CC2)c(C)c1 (stereo not shown),-5.48
9,NNC(=O)C1CCCn2c1nc1sc3c(c1c2=O)CCCC3 (stereo not shown),7
10,CCC(C)c1ccccc1OCCOCCN1CCCC1 (stereo not shown),-2.61
11,O=C(CN1C(=O)/C(=C/c2ccccc2)SC1=S)NNC(=O)c1ccccc1O,13.4
12,O=C(NCCC1=CCCCC1)C1CCCN(c2nc3ccccc3o2)C1 (stereo not shown),13.1
13,Cn1c(=O)c2[nH]c(N3CCN(c4ccccc4)CC3)nc2n(C)c1=O,11.7
14,CC(=O)c1cccc(S(=O)(=O)N2CCN(c3nc4cc(C)cc(C)c4cc3C#N)CC2)c1,5.17
15,CCNC(=O)C1CC(=O)N(c2ccc(OCC)cc2)C1 (stereo not shown),1.62
16,CCc1cccc(CC)c1NC(=O)COC(=O)/C(C#N)=C/c1ccc(OC)cc1,11.2
17,COc1ccc(CCn2c(-c3ccco3)nc3nc4ccccc4nc32)cc1,3.09
18,Cc1sc2ncnc(SCC(=O)N3CCCC3)c2c1C,3.05
19,Cc1cccc(NC(=O)Nc2cccc3ccccc23)c1,5.66
20,CCN(c1ccccc1)S(=O)(=O)c1ccc(Oc2ccc([N+](=O)[O-])cc2)nc1,4.59
21,COCc1c(C(=O)OC)nnn1-c1ccc(C(F)(F)F)cc1[N+](=O)[O-],4.27
22,COc1ccc(NC(=O)CCCC(=O)c2ccccc2)cc1OC,8.46

row,Compound,"hERG current change (%, negative = inhibition) at 1uM [%]"
1,Cc1ccc(N=CC=C2OC(C)(C)C(C)(C)O2)c(C)c1,13.7
2,C=CCN1C(=O)/C(=C2/Sc3ccc(OC)cc3N2C)SC1=NCc1ccccc1,2.86
3,Cc1ccc(-n2c(O)c(/C=N/c3ncc(Br)cc3Br)c(=O)[nH]c2=O)cc1,1.59
4,O=C(NC1CC1)C1=C[C@@H](c2coc3ccccc3c2=O)C[C@@H](OCc2ccc(CO)cc2)O1,-5.18
5,CCN1CCc2c(OCC(=O)N3CCCc4ccccc43)cccc2C1=O,4.36
6,CSCC[C@@H](C(=O)Nc1ccc2c(c1)OCCO2)N1Cc2ccccc2C1=O,0.177
7,NC(=O)c1cc(-c2ccncc2)nc2ccc(Cl)cc12,13.8
8,CCOC(=O)C1CCCN(Cc2cccc(Oc3ccccc3)c2)C1 (stereo not shown),7.83
9,C/C(N)=C(/C#N)C(=O)CSc1nnc(Nc2ccccc2C)s1,5.44
10,CC1(/[N+]([O-])=C\c2ccccc2F)CCCCC1=O (stereo not shown),12.5
11,COc1ccc(CN2CCN(C3CCC3)CC2CCO)c(F)c1 (stereo not shown),12.2
12,c1ccc2c(-c3nc4ncccc4o3)cccc2c1,9.44
13,C1=CC2CC1CC2CN1CCN(c2ccccc2)CC1 (stereo not shown),-6.09
14,N#C/C(=C\c1ccc(-c2ccc(S(=O)(=O)N3CCOCC3)cc2)o1)C(=O)NC1CC1,4.22
15,Cc1c(OCc2ccccc2)c(=O)ccn1Cc1ccc(Cl)cc1,16.9
16,CC(C)N1CCc2c(sc(NC(=O)CN3C(=O)c4ccccc4C3=O)c2C(N)=O)C1.Cl,4.44
17,COc1ccc(CN(C)CC(=O)Nc2cccc(S(=O)(=O)N(C)c3ccccc3)c2)c(OC)c1,-25
18,CCOC(=O)c1nc(Nc2cccc(C)c2)c2ccccc2n1,1.44
19,Cc1cccc(S(=O)(=O)NNC(=O)c2cc(-c3ccc(F)cc3)nc3ccccc23)c1,7.19
20,Cc1ccc(C(=O)NC(C)c2ccccc2)cc1Br (stereo not shown),9.93
21,CCOC(=O)N/N=C1\CCc2ccccc21,11.1
22,O=C(NCCc1ccc(F)cc1)c1ccc(NS(=O)(=O)c2ccc3[nH]c(=O)[nH]c3c2)cc1,17.3
